In the supplement of paper PMC3334620:
In all, about 33,000 sequences were measured (“E-score (-0.5 to 0.5)”: median about -0.011, highest 2% from about 0.28 on). This is one part of the list.

These sequences were tested against T1, Gcr1 (UniProt P07261) (assay: PBM E-score (8-mer binding enrichment) (E-score (-0.5 to 0.5)); higher = stronger / more preferred TF binding; most listed sequences are background and not binding sites). Conditions: protein concentration: 100 nM; construct: GST-full length.
T1 sequence: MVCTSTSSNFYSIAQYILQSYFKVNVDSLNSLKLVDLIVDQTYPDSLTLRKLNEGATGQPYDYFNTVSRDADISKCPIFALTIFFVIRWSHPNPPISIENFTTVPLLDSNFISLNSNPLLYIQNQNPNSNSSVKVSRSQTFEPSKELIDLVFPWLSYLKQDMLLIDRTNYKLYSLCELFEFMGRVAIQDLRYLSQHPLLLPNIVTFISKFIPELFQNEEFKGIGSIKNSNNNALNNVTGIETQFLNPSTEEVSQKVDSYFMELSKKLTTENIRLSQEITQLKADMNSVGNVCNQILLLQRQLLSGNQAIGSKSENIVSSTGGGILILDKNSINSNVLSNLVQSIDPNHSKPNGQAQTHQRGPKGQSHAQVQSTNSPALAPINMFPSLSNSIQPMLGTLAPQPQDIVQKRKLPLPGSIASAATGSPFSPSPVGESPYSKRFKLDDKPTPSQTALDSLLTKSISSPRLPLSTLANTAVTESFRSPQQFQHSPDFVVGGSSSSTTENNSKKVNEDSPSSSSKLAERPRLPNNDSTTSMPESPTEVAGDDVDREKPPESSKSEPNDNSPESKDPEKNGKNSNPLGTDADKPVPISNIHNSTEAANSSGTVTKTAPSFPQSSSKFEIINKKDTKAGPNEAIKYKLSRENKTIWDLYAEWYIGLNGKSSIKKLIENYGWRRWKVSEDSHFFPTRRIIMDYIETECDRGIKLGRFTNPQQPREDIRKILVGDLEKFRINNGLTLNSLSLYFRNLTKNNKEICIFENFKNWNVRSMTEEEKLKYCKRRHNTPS
In short: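 Yeast transcription factors carrying a GST tag, as full-length proteins or DNA-binding domains, were produced by PURExpress in vitro transcription/translation. About 100-200 nM protein was applied to universal all-10-mer Agilent arrays, double-stranded by primer extension on fresh or once-stripped slides. Bound protein was detected with fluorescent anti-GST, and scans were normalised with masliner. The Universal PBM Analysis Suite gave each ungapped eight-base word, pooled with its reverse complement, an E-score, a modified Wilcoxon-Mann-Whitney statistic.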

Row | Sequence | PBM E-score
1 | CCGTCTCC | -0.256
2 | CAGGAGCG | 0.154
3 | GACCGTGC | -0.101
4 | CACACTAA | -0.0887
5 | GACTGCTA | -0.0477
6 | CCGCCCAG | -0.144
7 | ACTGCATA | 0.0703
8 | ATTTAGCG | 0.0447
9 | ACCACAAC | 0.0974
10 | GAGCGAAA | 0.00366
11 | CGAGTCCA | -0.051
12 | CCCAGACC | -0.0513
13 | CAATGGAC | 0.169
14 | CTCGGGCC | -0.107
15 | ACTTAACT | -0.0577
16 | CTGGGCTC | 0.146
17 | GACATGTA | -0.0841
18 | AAATGCCT | -0.153
19 | CATCTAAA | 0.161
20 | GCCTAGCA | -0.0891
21 | ACTGCAAC | 0.00696
22 | GCCGAAGA | -0.209

Row | Sequence | PBM E-score
23 | GGGGCAAA | 0.0742
24 | ATCCGGTC | 0.0498
25 | GTCCATAA | 0.137
26 | CCGGTCAG | -0.0578
27 | AATATCCT | -0.0901
28 | GCATAGGA | -0.0895
29 | ATCTTACC | 0.0667
30 | ATCTCCCA | 0.12
31 | GCGCATAA | -0.229
32 | GCGCCGCA | 0.114
33 | ATTAGGTA | -0.111
34 | AGCGCCCA | 0.183
35 | GAAGTGAA | 0.224
36 | GTCCGCTA | 0.0982
37 | ACTAGGTG | 0.0431
38 | AGCGTTTA | 0.0678
39 | TGCCTAAA | 0.192
40 | CAACGCTG | -0.0977
41 | CCGCGGCC | 0.0546
42 | GACGGGCC | -0.182
43 | TAACTAAA | 0.0861
44 | CGCTGCCG | 0.175

Row | Sequence | PBM E-score
45 | CAGAGTAC | 0.08
46 | ACGTCTTA | 0.00729
47 | CACGCATA | -0.173
48 | AGAATCTG | 0.203
49 | GCTAAAAA | 0.137
50 | AGACGTGG | -0.252
51 | ACTTTAAA | 0.0642
52 | AGTGCTCA | -0.181
53 | CTCTCTTA | -0.0717
54 | CGAAGTTA | 0.0921
55 | AAAGCGGC | 0.213
56 | CCCCCGAC | -0.137
57 | CCTCACCG | -0.0239
58 | GTGTTCAA | 0.0662
59 | GAGCCAGC | -0.0825
60 | ACCGAGGT | -0.119
61 | CGAATAAC | 0.0279
62 | AATCCTGT | 0.217
63 | AAGTCCTC | 0.0526
64 | CGATTATA | 0.0315
65 | AGCGGTGG | -0.0647
66 | CAAGCTCA | -0.14

Row | Sequence | PBM E-score
67 | AGCATGTA | 0.0411
68 | GCTGAGAA | -0.0462
69 | CGTTATTC | -0.0445
70 | GAATTCGA | 0.0254
71 | CTTATGAC | 0.0224
72 | TATGAGCA | -0.102
73 | TGTTGCAA | 0.0641
74 | ATAGAGAG | -0.263
75 | ACTTTTCC | 0.112
76 | GGGGACCA | 0.194
77 | AGTGTTCC | -0.0253
78 | CCATGCAC | -0.219
79 | CACCGAGC | -0.00966
80 | GGTATACC | -0.0901
81 | AGTTAGCG | 0.0629
82 | CCCGCGAC | -0.167
83 | ACTAGCTG | 0.123
84 | AACCCAAA | 0.149
85 | CAGTGACA | -0.0594
86 | ATATAAAT | 0.202
87 | CAAGCCCC | -0.18
88 | GAGCGGCA | -0.0784

Row | Sequence | PBM E-score
89 | GGAACGCA | 0.194
90 | ATAACGAG | -0.149
91 | GGACTCAA | 0.0186
92 | GTAACAGA | 0.00518
93 | CGTTACAA | -0.0913
94 | CACTTAGA | 0.0664
95 | CGCCCTAG | 0.143
96 | CACGTGGA | 0.044
97 | AACTGTCC | -0.122
98 | CTCACTTA | -0.173
99 | ATGACGCG | -0.0878
100 | ACGAAAGA | -0.0771
101 | ATTTATCA | 0.0721
102 | AGGCCCGA | -0.144
103 | CTCGTAAA | 0.059
104 | CATGTTTC | 0.0504
105 | TGATTGAA | 0.172
106 | ATCCGTGA | -0.0751
107 | ATCTAAGG | -0.16
108 | ACCTAACG | 0.0168
109 | GACCTCGA | -0.0276
